The values that follow come from PubChem BioAssay AID1159614 (National Center for Advancing Translational Sciences (NCATS), 2016).

The whole screen tested about 45,000 compounds, of which about 65 (0.1%) were called active. The call rests on the fitted dose curve; in most records, active means well fitted activation curve with a large enough effect; inconclusive means small, poorly fitted or top-dose-only effect; inactive means no such curve, though single readings can be large or run the other way. This is one part of the list.

In this experiment the target is Galactocerebrosidase (Homo sapiens) (UniProt P54803). Put plainly: A Novel Cell-Based Assay to Identify Small Molecules for B -Galactocerebrosidase. Further: 0% is about no effect; nearly all actives have a fitted effect of over 65% in size. The conditions noted are these: 145M-Twi-hGALC-G270D cells (Twitcher mouse brain line with human GALC G270D), HMU-beta-Gal fluorescence, 48 h; series mostly up to 57.5 µM; activation: at the top concentration. The gist of the method: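 Live 145M-Twi cells (Twitcher mouse brain-derived, GALC-null) stably expressing human GALC-G270D, with a wild-type GALC line, were compound-treated. Residual GALC activity was then read as fluorescence from 0.1 mM final HMU-β-gal at pH 5.2; higher signal means activation.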
Chain of UniProt P54803 (P54803 whole entry, looked up): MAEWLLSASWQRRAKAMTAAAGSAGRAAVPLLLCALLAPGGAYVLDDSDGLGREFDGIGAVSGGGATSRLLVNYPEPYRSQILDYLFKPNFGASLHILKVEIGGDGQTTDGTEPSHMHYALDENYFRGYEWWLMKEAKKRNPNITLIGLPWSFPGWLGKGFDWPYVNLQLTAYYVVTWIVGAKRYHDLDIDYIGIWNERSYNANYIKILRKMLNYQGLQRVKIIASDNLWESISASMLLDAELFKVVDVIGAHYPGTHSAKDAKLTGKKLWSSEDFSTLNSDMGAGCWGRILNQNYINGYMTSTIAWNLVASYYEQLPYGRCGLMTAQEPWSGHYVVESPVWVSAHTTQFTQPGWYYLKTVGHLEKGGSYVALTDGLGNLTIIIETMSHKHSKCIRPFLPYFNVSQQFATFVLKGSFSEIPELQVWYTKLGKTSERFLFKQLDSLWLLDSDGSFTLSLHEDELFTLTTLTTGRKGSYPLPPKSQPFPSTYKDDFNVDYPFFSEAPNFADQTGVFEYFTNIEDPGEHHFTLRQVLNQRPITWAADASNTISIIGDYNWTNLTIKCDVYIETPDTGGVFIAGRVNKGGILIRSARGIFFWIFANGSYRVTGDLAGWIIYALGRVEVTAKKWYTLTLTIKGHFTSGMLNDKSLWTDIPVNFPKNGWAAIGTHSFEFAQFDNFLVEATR
Turning to `Cc1ccc(Cl)cc1N1CCN(C(=O)C2CCN(Cc3nc(-c4cccc(Cl)c4)oc3C)CC2)CC1`, the “activation” value is inactive: 11.3%.
For the compound `COc1ccc(CNC(=O)Cc2csc3nc(-c4ccc(C)cc4)cn23)cc1`, the “activation” value was inactive: -10.2%.
The value for `O=C(COc1ccccc1)Nc1ccccc1C(=O)OCc1cc(=O)n2nc(C3CC3)sc2n1` was inactive: -9.87%.
The value for `CCOC(=O)Cn1c(=O)n(-c2ccccc2OC)c2nc(-c3ccccc3C)nc(C(N)=O)c21` was inactive: -32.6%; that for `Cc1cccc(C(=O)Nc2ccccc2SCc2cc(=O)c3cccc(C)c3[nH]2)c1` was inactive: -15.6%; that for `COc1ccc(NC(=O)CCn2cccn2)cc1OC` was inactive: 1.56%.
In the case of `Cc1nnc(N2CCN(c3ccccc3F)CC2)c2c1nnn2Cc1ccccc1`, the “activation” value is inactive: -13.2%.
As for `CCOCCc1nn2c(=O)cc(COC(=O)C(CC)c3ccccc3)nc2s1` (configuration not stated), the “activation” value was inactive: -11.4%.
Turning to `CCCn1cc(S(=O)(=O)c2ccc(CC)cc2)c(=O)c2ccccc21`, the “activation” value is inactive: -12.7%.
The value for `CCCCc1nn2c(=O)cc(COC(=O)c3ccc(NC(=O)C4CCCCC4)cc3)nc2s1` was inactive: -12.1%; that for `Cc1ccc(Cn2c(=O)n(Cc3ccccc3Cl)c(=O)c3ccccc32)cc1` was inactive: -20%.
For the compound `Cc1ccc(N(C)C(=O)C2CCCN(c3ncnc4c3nc3n4CCCCC3)C2)cc1C` (configuration not stated), the “activation” value is inactive: -11.4%.
The value for `Cc1ccc2occ(-c3cc(-c4ccc(Cl)cc4)nc4c3COc3ccccc3-4)c(=O)c2c1` was inactive: -12.5%; that for `CCOc1ccc(NC(=O)Cn2c(=O)n(CCC(=O)NCCc3ccccc3)c(=O)c3ccccc32)cc1` was inactive: 3.34%.
Consider `Cc1ccc(C(c2sc3nc(-c4ccco4)nn3c2O)N2CCN(Cc3ccccc3)CC2)cc1` (configuration not stated), for which the “activation” value was inactive: -27.5%.
On to `COc1ccccc1CNC(=O)c1cnn2c(C)c(Cc3ccc(F)cc3)c(C)nc12`, for which the “activation” value is inactive: -14.4%.
With `COc1cccc(C2CC(=O)Nc3c2c(=O)nc2c(C)cccn32)c1OC` (configuration not stated), the “activation” value is inactive: -10.7%.
For the compound `Cc1ccc(-c2nc3cc(Cl)ccc3o2)cc1NC(=O)COc1ccc(F)cc1`, the “activation” value is inactive: -6.53%.
The value for `CC1=C(C(=O)OC2CCCC2)C(c2ccccc2Cl)CC(=O)N1` (configuration not stated) was inactive: -25.3%; that for `CCOC(=O)c1ccc(NC(=O)CN2C(=O)COc3ccc(Cl)cc32)cc1` was inactive: -23.7%.
As for `CC1CCCN(CCCNC(=O)CN2C(=O)CSc3ccc(S(=O)(=O)N4CCOCC4)cc32)C1` (configuration not stated), the “activation” value was inactive: 0.79%.
For `COc1ccc(-c2nc3sc(CCNC(=O)C(=O)Nc4c(C)cccc4C)c(C)n3n2)cc1`, the “activation” value is inactive: -9.99%.
Turning to `Cc1c(C(=O)N2CCC(C)CC2)c(S(=O)(=O)N2CCN(c3ccc(Cl)cc3)CC2)c(C)n1C`, the “activation” value is inactive: -12.3%.
Take `CCOc1ccccc1NC(=O)Cn1nnc(C(=O)Nc2ccc(C)c(C)c2)c1N`: the “activation” value is inactive: -11.4%.
For `Cn1nccc1C(=O)NCc1ccc2c(c1)CCN2C(=O)c1ccccc1`, the “activation” value is inactive: -14.8%.
Take `Cc1ccc(Cl)cc1N1CCN(C(=O)C2CCN(Cc3nc(-c4ccc(Cl)cc4)oc3C)CC2)CC1`: the “activation” value is inactive: -4.5%.
In the case of `CC(C)(C)OC(=O)N1CCC(c2c(C(=O)NC3CCCCC3)cnn2-c2cccc(Cl)c2)CC1`, the “activation” value is inactive: -22.9%.
Turning to `Cc1ccc(Cl)cc1N1CCN(S(=O)(=O)c2cc3[nH]c(=O)c(=O)[nH]c3cc2C)CC1`, the “activation” value was inactive: 0.861%.
Turning to `O=C(Cn1c(=O)oc2cc(S(=O)(=O)NC3CCCC3)ccc21)Nc1ccc(F)c(F)c1`, the “activation” value was inactive: -42.5%.
The value for `Cc1ccccc1CS(=O)(=O)Cc1ccc(C(=O)NCc2ccc(F)cc2)o1` was inactive: -36.6%; that for `COc1cccc(NC(=O)CCNC(=O)Cn2ccc3ccccc3c2=O)c1` was inactive: 4.54%; that for `Cc1ccc(NC(=O)Cn2c(=O)ccc3cc(S(=O)(=O)N4CCC(C)CC4)ccc32)cc1Cl` was inactive: -11.3%.
Take `Cc1ccc(C)c(NC(=O)c2cc(=O)c3cc(C)cc(C)c3o2)c1`: the “activation” value was inactive: -13.2%.
Consider `O=C1CC(c2ccc(Cl)cc2)N=C(NC(=O)c2ccccc2)N1` (configuration not stated), for which the “activation” value is inactive: -5.2%.
With `COCCNc1ncnc2c1c(-c1ccccc1)cn2-c1cccc(Cl)c1`, the “activation” value was inactive: -9.39%.
For `COc1ccc(CNC(=O)C2CCN(S(=O)(=O)c3cccc4nonc34)CC2)cc1OC`, the “activation” value was inactive: -6.02%.
For the compound `Cc1ccc(NC(=O)CSc2nnc(N)s2)c(C)c1`, the “activation” value was inactive: -16.4%.
As for `CCc1ccc(NCc2cc3cc4c(cc3n(CC(=O)Nc3ccc(F)cc3)c2=O)OCCO4)cc1`, the “activation” value is inactive: -3.34%.
As to `CC(C)C(=O)OCc1cc(=O)n2nc(C3CCCCC3)sc2n1`, the “activation” value was inactive: -21.2%.
The value for `Cc1ccc(NC(=O)C2CCCN2S(=O)(=O)c2cccc3cccnc23)cc1C` (configuration not stated) was inactive: 1.27%; that for `Cn1ccnc1SCC(=O)Nc1cc(Cl)ccc1Cl` was inactive: 5.85%; that for `CCN(CC)c1ccc(C2C(C(N)=O)=C(C)Nc3ncnn32)cc1` (configuration not stated) was inactive: 3.12%.
As for `CCCCNC(=O)CCc1c(C)nc2c(c(C)nn2-c2ccccc2)c1C`, the “activation” value was inactive: -2.25%.
Consider `Cn1c(=O)c2c(nc(SCC(=O)Nc3ccc(F)cc3)n2Cc2ccccc2)n(C)c1=O`, for which the “activation” value was inactive: -8.88%.
As for `COc1ccc(NS(=O)(=O)c2ccc3[nH]c4c(c3c2)CCCCCC4)cc1`, the “activation” value was inactive: -17.3%.
The value for `CCC(C(=O)Nc1ccc(C(C)=O)cc1)n1c(C)c2cnn(-c3ccccc3)c(=O)c2c1C` (configuration not stated) was inactive: -15.4%.
For `Cc1cc(O)c(C(C)C)cc1Cl`, the “activation” value was inactive: -10.5%.
The value for `Fc1ccc(CNc2nc(-c3ccccc3)cc(C(F)(F)F)n2)cc1` was inactive: -17.8%; that for `COc1cccc(OCc2nc3ccccc3n2CCOc2cccc(C)c2)c1` was inactive: -9.31%; that for `Cc1ccccc1CN1CCCN(CC(=O)Nc2c(C)cccc2C)S1(=O)=O` was inactive: -10.3%.
On to `COc1ccccc1N1CCN(C(CNC(=O)C(=O)NCCc2ccccc2)c2cccnc2)CC1` (configuration not stated), for which the “activation” value is inactive: -13.3%.
Regarding `O=C(NCCc1ccccc1)c1cc(Sc2ccc(F)cc2F)nc2ccccc12`, the “activation” value is inactive: -0.333%.
For `Cc1cccc(CS(=O)(=O)c2ncc(Cl)c(C(=O)NCc3ccccc3)n2)c1`, the “activation” value was inactive: -33.2%.
Turning to `O=C(Nc1ccc(F)cc1F)c1ccc(-n2cnnc2)cc1`, the “activation” value was inactive: -15.2%.
`O=C(NCC12CC3CC(CC(C3)C1)C2)c1cc2nc(-c3ccc(F)cc3)cc(C(F)(F)F)n2n1`: the “activation” value is inactive: -12%.
The value for `COc1ccc(-c2onc(C)c2C)cc1S(=O)(=O)NC1CCC(C)CC1` (configuration not stated) was inactive: -3.69%; that for `Cc1ccc(OCC(=O)Nc2ccc(C(=O)OCc3cc(=O)n4c(C)csc4n3)cc2)cc1` was inactive: -11.3%; that for `COc1cccc(-c2ccc3c(N)c(C(=O)Nc4ccc(C)c(F)c4)sc3n2)c1` was inactive: -22%.
Take `COc1ccc(-c2cc(C(F)(F)F)nc(SCCC(=O)Nc3c(C)cccc3C)n2)cc1`: the “activation” value was inactive: 1.51%.
As for `COc1cc(NC(=O)Cn2cc(S(=O)(=O)c3ccccc3)c(=O)c3ccccc32)cc(OC)c1`, the “activation” value is inactive: -0.61%.
The value for `CCOc1cc(C2c3c(-c4ccccc4O)n[nH]c3C(=O)N2CCc2ccccc2)ccc1O` (configuration not stated) was inactive: -8.41%.
The value for `CCc1ccc(C2c3c(oc4ccc(C)cc4c3=O)C(=O)N2c2nc(C)c(C)s2)cc1` (configuration not stated) was inactive: -18.4%.
